Measurements as given in article PMC4924737.
These are yes or no findings as the source states them, for the method shown. For some assays here: In cells and extracts the contact can be indirect. Some entries that bind do so weakly or less than the wild type. For some assays here: Where a sequence is shown, tags or fusion partners need not be part of it. One block for each molecule: values may come before it.

By UniProt entry, the sequences of proteins in these tests, tags left out. Where a name states a change or a piece, a line headed by the entry shows the natural chain unless it says otherwise. Chains listed by the source or under a name are the forms on record and can include a tag or linker.
UniProt Q9Y6E0: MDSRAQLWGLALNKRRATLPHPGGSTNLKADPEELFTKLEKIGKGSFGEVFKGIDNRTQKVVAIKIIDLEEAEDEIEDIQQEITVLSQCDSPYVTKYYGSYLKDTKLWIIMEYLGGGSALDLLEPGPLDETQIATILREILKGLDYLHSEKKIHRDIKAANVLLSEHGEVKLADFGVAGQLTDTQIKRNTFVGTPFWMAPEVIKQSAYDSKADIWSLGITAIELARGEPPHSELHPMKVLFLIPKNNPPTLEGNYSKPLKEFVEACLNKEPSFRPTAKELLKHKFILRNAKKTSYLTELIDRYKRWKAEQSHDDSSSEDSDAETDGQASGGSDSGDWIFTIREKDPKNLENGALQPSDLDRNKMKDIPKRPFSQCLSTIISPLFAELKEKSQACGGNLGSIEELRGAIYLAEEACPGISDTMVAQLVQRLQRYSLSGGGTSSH
myc-tagged MST3 (mammalian STE20-like kinase 3) (Q9Y6E0-2, form named): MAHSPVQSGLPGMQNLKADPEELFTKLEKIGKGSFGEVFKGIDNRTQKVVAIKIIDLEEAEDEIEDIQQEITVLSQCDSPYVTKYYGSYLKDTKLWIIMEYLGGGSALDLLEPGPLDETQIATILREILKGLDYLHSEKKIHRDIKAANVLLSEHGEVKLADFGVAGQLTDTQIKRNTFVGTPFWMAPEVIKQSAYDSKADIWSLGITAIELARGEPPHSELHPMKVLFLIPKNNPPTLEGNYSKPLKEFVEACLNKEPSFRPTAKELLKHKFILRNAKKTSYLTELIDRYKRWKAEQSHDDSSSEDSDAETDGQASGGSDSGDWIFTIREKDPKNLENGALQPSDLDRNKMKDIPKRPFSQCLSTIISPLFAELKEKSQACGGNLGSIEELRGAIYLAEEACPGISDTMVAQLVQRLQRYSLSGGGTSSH
mutant Pro-MST3-HA (MST3 with mutations of the two prolines of the proline-rich domain) (Q9Y6E0-2, form named): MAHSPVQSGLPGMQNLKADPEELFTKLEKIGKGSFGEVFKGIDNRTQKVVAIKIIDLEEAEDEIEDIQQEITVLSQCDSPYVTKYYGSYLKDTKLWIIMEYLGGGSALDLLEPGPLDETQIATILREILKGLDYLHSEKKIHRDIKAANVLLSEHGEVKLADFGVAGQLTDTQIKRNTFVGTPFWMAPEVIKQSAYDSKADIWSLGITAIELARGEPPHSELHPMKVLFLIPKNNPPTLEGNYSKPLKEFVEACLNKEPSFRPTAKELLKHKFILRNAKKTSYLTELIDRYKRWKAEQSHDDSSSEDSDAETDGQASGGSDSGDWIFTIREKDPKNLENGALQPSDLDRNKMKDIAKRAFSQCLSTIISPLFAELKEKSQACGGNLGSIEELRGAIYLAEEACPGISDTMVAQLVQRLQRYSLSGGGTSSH

Key:
HA-tagged VAV2 = molecular target: T1, HA-tagged VAV2 (UniProt P52735); test: co-IP; HEK293 cells co-transfected with the two tagged proteins; Triton X-100 lysis buffer (50 mM Tris-HCl pH 7.8, 150 mM NaCl, 1% Triton X-100); 0.5 mg total protein, 1 ug anti-myc or anti-HA antibody overnight at 4°C, protein G-Sepharose; immunoblot with anti-myc and anti-HA
T1 sequence: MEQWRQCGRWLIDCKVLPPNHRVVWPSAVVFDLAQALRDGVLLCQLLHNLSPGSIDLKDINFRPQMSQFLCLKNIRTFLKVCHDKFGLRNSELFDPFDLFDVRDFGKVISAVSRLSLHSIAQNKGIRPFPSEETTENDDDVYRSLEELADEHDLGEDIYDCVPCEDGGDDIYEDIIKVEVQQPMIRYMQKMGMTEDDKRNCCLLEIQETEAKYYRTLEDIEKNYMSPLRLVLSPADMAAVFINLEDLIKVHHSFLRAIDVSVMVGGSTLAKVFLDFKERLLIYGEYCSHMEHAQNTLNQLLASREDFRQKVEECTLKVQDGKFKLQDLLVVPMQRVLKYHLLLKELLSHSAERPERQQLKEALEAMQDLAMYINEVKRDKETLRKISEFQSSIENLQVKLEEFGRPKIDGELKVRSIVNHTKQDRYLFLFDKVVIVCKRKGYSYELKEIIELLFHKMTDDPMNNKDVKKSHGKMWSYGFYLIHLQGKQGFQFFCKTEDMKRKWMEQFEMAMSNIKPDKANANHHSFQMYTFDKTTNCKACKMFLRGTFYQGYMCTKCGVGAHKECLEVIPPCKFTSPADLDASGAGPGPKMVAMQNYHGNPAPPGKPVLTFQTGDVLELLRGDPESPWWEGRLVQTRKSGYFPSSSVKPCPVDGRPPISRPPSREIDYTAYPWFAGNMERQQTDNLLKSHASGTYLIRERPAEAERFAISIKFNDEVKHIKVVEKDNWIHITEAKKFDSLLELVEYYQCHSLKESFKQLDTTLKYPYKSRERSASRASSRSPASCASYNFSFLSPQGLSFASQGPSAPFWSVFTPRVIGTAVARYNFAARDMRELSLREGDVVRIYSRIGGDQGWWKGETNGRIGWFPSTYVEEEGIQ

[1] = molecular target: myc-tagged MST3 (mammalian STE20-like kinase 3) (UniProt Q9Y6E0); test: as above
[2] = molecular target: Purified recombinant MST3 (baculovirus-expressed) (UniProt Q9Y6E0); test: co-IP; in vitro pull-down: 0.5 ug baculovirus-expressed MST3 and 1 ug recombinant VAV2 mixed in 100 ul PBS with protease inhibitors, room temperature 10 min; 0.5 ug anti-MST3 monoclonal antibody 3 hr at 4°C, protein G-Sepharose; washed with Triton X-100 lysis buffer; both purified
[3] = molecular target: mutant Pro-MST3-HA (MST3 with mutations of the two prolines of the proline-rich domain) (UniProt Q9Y6E0); test: co-IP; HEK293 cells co-transfected with the two tagged proteins; Triton X-100 lysis buffer (50 mM Tris-HCl pH 7.8, 150 mM NaCl, 1% Triton X-100); 0.5 mg total protein, 1 ug anti-myc or anti-HA antibody overnight at 4°C, protein G-Sepharose; immunoblot with anti-myc and anti-HA
Wild-type MST3-HA = Wild-type MST3-HA (UniProt Q9Y6E0); test: as above
[4] = molecular target: Endogenous MST3 (human (endogenous in MDA-MB-231)) (UniProt Q9Y6E0); test: co-IP; endogenous proteins; 1 mg total protein from MDA-MB-231 cells, 1 ug anti-MST3 antibody, protein G-Sepharose; immunoblot with anti-MST3 or anti-VAV2

binding (HA-tagged VAV2): binds
Molecule: myc-tagged MST3 (mammalian STE20-like kinase 3) (from UniProt Q9Y6E0-2 1-431)

binding [1]: binds
B1: HA-tagged VAV2 (protein, UniProt P52735 1-878)
chain: T1 sequence

binding [2]: binds
B2: Purified recombinant VAV2 protein (OriGene) (protein, UniProt P52735 1-878)
chain: T1 sequence

binding [3]: binds weakly | binding (Wild-type MST3-HA): binds
B3: Wild-type VAV2-myc (protein, UniProt P52735 1-878)
chain: T1 sequence

binding [4]: binds
B4: Endogenous VAV2 (protein, UniProt P52735 1-878)
chain: T1 sequence

binding (Wild-type MST3-HA): no binding
B5: 1-580-VAV2-myc (domain or fragment, UniProt P52735 1-580)
chain: MEQWRQCGRWLIDCKVLPPNHRVVWPSAVVFDLAQALRDGVLLCQLLHNLSPGSIDLKDINFRPQMSQFLCLKNIRTFLKVCHDKFGLRNSELFDPFDLFDVRDFGKVISAVSRLSLHSIAQNKGIRPFPSEETTENDDDVYRSLEELADEHDLGEDIYDCVPCEDGGDDIYEDIIKVEVQQPMIRYMQKMGMTEDDKRNCCLLEIQETEAKYYRTLEDIEKNYMSPLRLVLSPADMAAVFINLEDLIKVHHSFLRAIDVSVMVGGSTLAKVFLDFKERLLIYGEYCSHMEHAQNTLNQLLASREDFRQKVEECTLKVQDGKFKLQDLLVVPMQRVLKYHLLLKELLSHSAERPERQQLKEALEAMQDLAMYINEVKRDKETLRKISEFQSSIENLQVKLEEFGRPKIDGELKVRSIVNHTKQDRYLFLFDKVVIVCKRKGYSYELKEIIELLFHKMTDDPMNNKDVKKSHGKMWSYGFYLIHLQGKQGFQFFCKTEDMKRKWMEQFEMAMSNIKPDKANANHHSFQMYTFDKTTNCKACKMFLRGTFYQGYMCTKCGVGAHKECLEVIPPCKFTSPADL

binding [1]: no binding
B6: HA-tagged VAV3 (protein, UniProt Q9UKW4 1-847)
chain: MEPWKQCAQWLIHCKVLPTNHRVTWDSAQVFDLAQTLRDGVLLCQLLNNLRAHSINLKEINLRPQMSQFLCLKNIRTFLTACCETFGMRKSELFEAFDLFDVRDFGKVIETLSRLSRTPIALATGIRPFPTEESINDEDIYKGLPDLIDETLVEDEEDLYDCVYGEDEGGEVYEDLMKAEEAHQPKCPENDIRSCCLAEIKQTEEKYTETLESIEKYFMAPLKRFLTAAEFDSVFINIPELVKLHRNLMQEIHDSIVNKNDQNLYQVFINYKERLVIYGQYCSGVESAISSLDYISKTKEDVKLKLEECSKRANNGKFTLRDLLVVPMQRVLKYHLLLQELVKHTTDPTEKANLKLALDAMKDLAQYVNEVKRDNETLREIKQFQLSIENLNQPVLLFGRPQGDGEIRITTLDKHTKQERHIFLFDLAVIVCKRKGDNYEMKEIIDLQQYKIANNPTTDKENKKWSYGFYLIHTQGQNGLEFYCKTKDLKKKWLEQFEMALSNIRPDYADSNFHDFKMHTFTRVTSCKVCQMLLRGTFYQGYLCFKCGARAHKECLGRVDNCGRVNSGEQGTLKLPEKRTNGLRRTPKQVDPGLPKMQVIRNYSGTPPPALHEGPPLQLQAGDTVELLKGDAHSLFWQGRNLASGEVGFFPSDAVKPCPCVPKPVDYSCQPWYAGAMERLQAETELINRVNSTYLVRHRTKESGEYAISIKYNNEAKHIKILTRDGFFHIAENRKFKSLMELVEYYKHHSLKEGFRTLDTTLQFPYKEPEHSAGQRGNRAGNSLLSPKVLGIAIARYDFCARDMRELSLLKGDVVKIYTKMSANGWWRGEVNGRVGWFPSTYVEEDE
